Test results reported in patent EP1078002B1, “PEPTIDE ANTIANGIOGENIC DRUGS” (ABBOTT LABORATORIES, priority 1998, dated 1999).
Not every detail of the peptide structures is certain; ends, links or a residue may be inferred. Peptide text beside a SMILES is read from it.

Test system: Human Microvascular Endothelial Cells
Assay: Human microvascular endothelial cell (HMVEC) migration assay, modified Boyden chamber
Format: cell-based
Details: activators 15 ng/ml bFGF/VEGF, 4 hours at 37 °C
Experimental: The human microvascular endothelial (HMVEC) migration assay was run according to the procedure of S. S. Tolsma, O. V. Volpert, D. J. Good, W. F. Frazier, P. J. Polverini and N. Bouck, J. Cell Biol. 122, 497-511 (1993).
The HMVEC migration assay was carried out using Human Microvascular Endothelial Cells-Dermal (single donor) and Human Microvascular Endothelial Cells, (neonatal). The BCE or HMVEC cells were starved overnight in DME containing 0.1 % bovine serum albumin (BSA). Cells were then harvested with trypsin and resuspended in DME with 0.1 % BSA at a concentration of 1.5 X 10^6 cells per ml. Cells were added to the bottom of a 48 well modified Boyden chamber (Nucleopore Corporation, Cabin John, MD). The chamber was assembled and inverted, and cells were allowed to attach for 2 hours at 37 °C to polycarbonate chemotaxis membranes (5 µm pore size) that had been soaked in 0.1% gelatin overnight and dried. The chamber was then reinverted, and test substances (total volume of 50 µl), including activators, 15 ng/ml bFGF/VEGF, were added to the wells of the upper chamber. The apparatus was incubated for 4 hours at 37 °C. Membranes were recovered, fixed and stained (Diff Quick, Fisher Scientific) and the number of cells that had migrated to the upper chamber per […] high power fields counted. Background migration to DME + 0.1 BSA was subtracted and the data reported as the number of cells migrated per 10 high power fields (400X) or, when results from multiple experiments were combined, as the percent inhibition of migration compared to a positive control.

SMILES	% Inhib. @ 20 nM [%]	% Inhib. @ 10 nM [%]
CCC[C@H](NC(=O)[C@@H](NC(=O)[C@H](NC(=O)[C@@H](NC(=O)CNC(=O)CN(C)C(C)=O)C(C)C)[C@H](C)CC)[C@@H](C)O)C(=O)N[C@H](C(=O)N[C@@H](CCCNC(=N)N)C(=O)N1CCC[C@H]1C(=O)NC(C)C)[C@@H](C)CC [Example 4, N-Ac-Sar-Gly-Val-D-Ile-Thr-Nva-Ile-Arg-ProNHIsopropyl] (HELM PEPTIDE1{[ac].[Sar].G.V.[dI].T.[Nva].I.R.P.[CC(C)N[*:1]]}$$$$V2.0)	71.3	–
CCC[C@H](NC(=O)[C@@H](NC(=O)[C@H](NC(=O)[C@@H](NC(=O)CNC(=O)CN(C)C(C)=O)C(C)C)[C@H](C)CC)[C@@H](C)O)C(=O)N[C@H](C(=O)N[C@@H](CCCNC(=N)N)C(=O)N1CCC[C@H]1C(=O)NCCN1CCCC1)[C@@H](C)CC [Example 5, N-Ac-Sar-Gly-Val-D-Ile-Thr-Nva-Ile-Arg-ProNHethyl-(1-pyrrolidine)] (HELM PEPTIDE1{[ac].[Sar].G.V.[dI].T.[Nva].I.R.P.[C1CCN(CCN[*:1])C1]}$$$$V2.0)	–	87.2
CCC[C@H](NC(=O)[C@@H](NC(=O)[C@H](NC(=O)[C@@H](NC(=O)CNC(=O)CN(C)C(C)=O)C(C)C)[C@H](C)CC)[C@@H](C)O)C(=O)N[C@H](C(=O)N[C@@H](CCCNC(=N)N)C(=O)N1CCC[C@H]1C(=O)NCCOC)[C@@H](C)CC [Example 11, N-Ac-Sar-Gly-Val-D-Ile-Thr-Nva-Ile-Arg-ProNHCH2CH2OCH3] (HELM PEPTIDE1{[ac].[Sar].G.V.[dI].T.[Nva].I.R.P.[COCCN[*:1]]}$$$$V2.0)	70.4	–
CCC[C@H](NC(=O)[C@@H](NC(=O)[C@H](NC(=O)[C@@H](NC(=O)CNC(=O)CN(C)C(C)=O)C(C)C)C(C)C)[C@@H](C)O)C(=O)N[C@H](C(=O)N[C@@H](CCCNC(=N)N)C(=O)N1CCC[C@H]1C(=O)NCC)[C@@H](C)CC [Example 18, N-Ac-Sar-Gly-Val-D-Val-Thr-Nva-Ile-Arg-ProNHCH2CH3] (HELM PEPTIDE1{[ac].[Sar].G.V.[dV].T.[Nva].I.R.P.[CCN[*:1]]}$$$$V2.0)	–	51.4
CCC[C@H](NC(=O)[C@@H](NC(=O)[C@@H](CC1CCCCC1)NC(=O)[C@@H](NC(=O)CNC(=O)CN(C)C(C)=O)C(C)C)[C@@H](C)O)C(=O)N[C@H](C(=O)N[C@@H](CCCNC(=N)N)C(=O)N1CCC[C@H]1C(=O)NCC)[C@@H](C)CC [Example 28, N-Ac-Sar-Gly-Val-D-Cha-Thr-Nva-Ile-Arg-ProNHCH2CH3] (HELM PEPTIDE1{[ac].[Sar].G.V.[O=C([C@@H](CC1CCCCC1)N[*:1])[*:2]].T.[Nva].I.R.P.[CCN[*:1]]}$$$$V2.0)	–	47.0
CCNC(=O)[C@@H]1CCCN1C(=O)[C@H](CCCNC(=N)N)NC(=O)[C@@H](NC(=O)[C@@H](NC(=O)[C@@H](NC(=O)[C@H](NC(=O)[C@@H](NC(=O)CNC(=O)CN(C)C(C)=O)C(C)C)[C@H](C)CC)[C@@H](C)O)C(C)C)[C@@H](C)CC [Example 47, N-Ac-Sar-Gly-Val-D-Ile-Thr-Val-Ile-Arg-ProNHCH2CH3] (HELM PEPTIDE1{[ac].[Sar].G.V.[dI].T.V.I.R.P.[CCN[*:1]]}$$$$V2.0)	69.7	–
C=CC[C@H](NC(=O)[C@@H](NC(=O)[C@H](NC(=O)[C@@H](NC(=O)CNC(=O)CN(C)C(C)=O)C(C)C)[C@H](C)CC)[C@@H](C)O)C(=O)N[C@H](C(=O)N[C@@H](CCCNC(=N)N)C(=O)N1CCC[C@H]1C(=O)NCC)[C@@H](C)CC [Example 49, N-Ac-Sar-Gly-Val-D-Ile-Thr-Allylgly-Ile-Arg-ProNHCH2CH3] (HELM PEPTIDE1{[ac].[Sar].G.V.[dI].T.[C=CC[C@H](N[*:1])C(=O)[*:2]].I.R.P.[CCN[*:1]]}$$$$V2.0)	83.4	–
CCNC(=O)[C@@H]1CCCN1C(=O)[C@H](CCCNC(=N)N)NC(=O)[C@@H](NC(=O)[C@H](CCSC)NC(=O)[C@@H](NC(=O)[C@H](NC(=O)[C@@H](NC(=O)CNC(=O)CN(C)C(C)=O)C(C)C)[C@H](C)CC)[C@@H](C)O)[C@@H](C)CC [Example 51, N-Ac-Sar-Gly-Val-D-Ile-Thr-Met-Ile-Arg-ProNHCH2CH3] (HELM PEPTIDE1{[ac].[Sar].G.V.[dI].T.M.I.R.P.[CCN[*:1]]}$$$$V2.0)	67.0	–
CCC[C@H](NC(=O)[C@@H](NC(=O)[C@H](NC(=O)[C@@H](NC(=O)CNC(=O)CN(C)C(=O)c1cccnc1C)C(C)C)[C@H](C)CC)[C@@H](C)O)C(=O)N[C@H](C(=O)N[C@@H](CCCNC(=N)N)C(=O)N1CCC[C@H]1C(=O)NCC)[C@@H](C)CC [Example 53, N-(2-Me-Nicotinyl)-Sar-Gly-Val-D-Ile-Thr-Nva-Ile-Arg-ProNHCH2CH3] (HELM PEPTIDE1{[Cc1ncccc1C(=O)[*:2]].[Sar].G.V.[dI].T.[Nva].I.R.P.[CCN[*:1]]}$$$$V2.0)	76.7	–
CCC[C@H](NC(=O)[C@@H](NC(=O)[C@H](NC(=O)[C@@H](NC(=O)CNC(=O)CN(C)C(=O)CCC(=O)O)C(C)C)[C@H](C)CC)[C@@H](C)O)C(=O)N[C@H](C(=O)N[C@@H](CCCNC(=N)N)C(=O)N1CCC[C@H]1C(=O)NCC)[C@@H](C)CC [Example 54, N-Succinyl-Sar-Gly-Val-D-Ile-Thr-Nva-Ile-Arg-ProNHCH2CH3] (HELM PEPTIDE1{[O=C(O)CCC(=O)[*:2]].[Sar].G.V.[dI].T.[Nva].I.R.P.[CCN[*:1]]}$$$$V2.0)	81.3	–
CCC[C@H](NC(=O)[C@@H](NC(=O)[C@H](NC(=O)[C@@H](NC(=O)CNC(=O)CN(C)C(=O)c1cccnc1)C(C)C)[C@H](C)CC)[C@@H](C)O)C(=O)N[C@H](C(=O)N[C@@H](CCCNC(=N)N)C(=O)N1CCC[C@H]1C(=O)NCC)[C@@H](C)CC [Example 55, N-Nicotinyl-Sar-Gly-Val-D-Ile-Thr-Nva-Ile-Arg-ProNHCH2CH3] (HELM PEPTIDE1{[O=C(c1cccnc1)[*:2]].[Sar].G.V.[dI].T.[Nva].I.R.P.[CCN[*:1]]}$$$$V2.0)	59.2	–
CCC[C@H](NC(=O)[C@@H](NC(=O)[C@H](NC(=O)[C@@H](NC(=O)CNC(=O)CN(C)C(=O)CC)C(C)C)[C@H](C)CC)[C@@H](C)O)C(=O)N[C@H](C(=O)N[C@@H](CCCNC(=N)N)C(=O)N1CCC[C@H]1C(=O)NCC)[C@@H](C)CC [Example 56, N-Propionyl-Sar-Gly-Val-D-Ile-Thr-Nva-Ile-Arg-ProNHCH2CH3] (HELM PEPTIDE1{[CCC(=O)[*:2]].[Sar].G.V.[dI].T.[Nva].I.R.P.[CCN[*:1]]}$$$$V2.0)	49.9	–
CCC[C@H](NC(=O)[C@@H](NC(=O)[C@H](NC(=O)[C@@H](NC(=O)CNC(=O)CN(C)C(=O)COC)C(C)C)[C@H](C)CC)[C@@H](C)O)C(=O)N[C@H](C(=O)N[C@@H](CCCNC(=N)N)C(=O)N1CCC[C@H]1C(=O)NCC)[C@@H](C)CC [Example 57, N-MeOacetyl-Sar-Gly-Val-D-Ile-Thr-Nva-Ile-Arg-ProNHCH2CH3] (HELM PEPTIDE1{[COCC(=O)[*:2]].[Sar].G.V.[dI].T.[Nva].I.R.P.[CCN[*:1]]}$$$$V2.0)	56.6	–
CCC[C@H](NC(=O)[C@@H](NC(=O)[C@H](NC(=O)[C@@H](NC(=O)CNC(=O)CN(C)C(=O)C1=C[C@@H](O)[C@@H](O)[C@H](O)C1)C(C)C)[C@H](C)CC)[C@@H](C)O)C(=O)N[C@H](C(=O)N[C@@H](CCCNC(=N)N)C(=O)N1CCC[C@H]1C(=O)NCC)[C@@H](C)CC [Example 58, N-Shikimyl-Sar-Gly-Val-D-Ile-Thr-Nva-Ile-Arg-ProNHCH2CH3] (HELM PEPTIDE1{[O=C(C1=C[C@@H](O)[C@@H](O)[C@H](O)C1)[*:2]].[Sar].G.V.[dI].T.[Nva].I.R.P.[CCN[*:1]]}$$$$V2.0)	68.8	–
